Experimental data from publication PMC4336329 (PLoS ONE, 2015).
In all, about 310,000 compounds went through this assay and about 2,200 (0.71%) showed an effect of 50% or more. The effect is printed as a negative number. The list shows a part of the results.

target: human ether-à-go-go-related gene (hERG) potassium channel (human, UniProt Q12809); test: primary screen, population patch clamp on CHO cells stably expressing hERG
Sequence (Q12809 whole entry, looked up): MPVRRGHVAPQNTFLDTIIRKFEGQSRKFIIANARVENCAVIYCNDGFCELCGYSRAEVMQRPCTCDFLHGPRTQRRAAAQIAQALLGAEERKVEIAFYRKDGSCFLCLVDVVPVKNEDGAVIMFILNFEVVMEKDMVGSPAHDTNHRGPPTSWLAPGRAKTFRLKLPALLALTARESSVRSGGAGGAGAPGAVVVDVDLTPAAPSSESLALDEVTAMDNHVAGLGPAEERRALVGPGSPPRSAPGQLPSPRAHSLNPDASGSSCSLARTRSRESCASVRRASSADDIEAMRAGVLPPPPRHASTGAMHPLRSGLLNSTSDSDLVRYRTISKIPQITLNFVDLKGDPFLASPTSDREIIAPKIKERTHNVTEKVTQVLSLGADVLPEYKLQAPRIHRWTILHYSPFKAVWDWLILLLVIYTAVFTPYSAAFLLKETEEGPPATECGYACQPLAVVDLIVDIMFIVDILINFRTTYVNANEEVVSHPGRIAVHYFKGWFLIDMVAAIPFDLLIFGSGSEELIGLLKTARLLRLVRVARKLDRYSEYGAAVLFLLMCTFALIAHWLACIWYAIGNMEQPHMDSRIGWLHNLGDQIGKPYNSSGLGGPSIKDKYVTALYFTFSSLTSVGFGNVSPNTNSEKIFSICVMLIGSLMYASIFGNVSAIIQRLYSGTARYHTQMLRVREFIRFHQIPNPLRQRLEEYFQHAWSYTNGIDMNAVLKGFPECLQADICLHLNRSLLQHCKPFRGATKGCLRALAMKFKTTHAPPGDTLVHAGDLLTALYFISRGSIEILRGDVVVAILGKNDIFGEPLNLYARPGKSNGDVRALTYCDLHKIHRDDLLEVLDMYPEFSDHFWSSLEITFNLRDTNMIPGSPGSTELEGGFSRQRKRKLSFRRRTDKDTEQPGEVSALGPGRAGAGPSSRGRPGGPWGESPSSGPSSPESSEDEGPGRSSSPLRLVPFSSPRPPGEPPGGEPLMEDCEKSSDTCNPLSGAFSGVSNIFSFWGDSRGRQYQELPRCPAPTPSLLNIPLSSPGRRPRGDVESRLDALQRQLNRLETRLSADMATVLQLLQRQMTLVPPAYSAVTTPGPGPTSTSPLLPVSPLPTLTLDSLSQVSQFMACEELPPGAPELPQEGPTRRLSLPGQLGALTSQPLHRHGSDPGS

Row | Structure (SMILES) | hERG current change (%, negative = inhibition) at 1uM [%]
1 | CC1CCCCC1NC(=O)c1ccc2c(c1)OCCO2 (stereo not drawn) | 12.4
2 | CCNC(=O)c1ccc(=O)n(Cc2ccc(Cl)cc2Cl)c1 | 2.11
3 | O=C1NC(=O)N(c2ccccc2)C(=O)/C1=C\c1ccccc1[N+](=O)[O-] | 14.1
4 | CNC(=S)N/N=C(\C)c1ccc(C(C)(C)C)cc1 | 1.09
5 | Cn1cc(Br)c(-c2cccc(NC(=O)CCCC(=O)O)c2)n1 | 13.5
6 | CCn1c(COc2cc(C)cc(C)c2)nnc1SCC(=O)N1CCN(c2ccccc2)CC1 | 1.88
7 | O=C(CN(C(=O)CCC(=O)Nc1nccs1)c1ccc2c(c1)OCCO2)NCc1ccco1 | 12.1
8 | CCN(CC)CCNC(C(=O)Nc1cccc(C(C)=O)c1)c1ccccc1.O=C(O)C(=O)O (stereo not drawn) | -51.4
9 | COc1ccc(NC(=S)N(CCc2c(C)[nH]c3ccc(C)cc23)Cc2cccnc2)cc1 | 3.84
10 | CC(=O)Nc1ccc(NC(=O)c2nc(-c3ccccc3)oc2C)cc1 | 22.6
11 | Cl.O=C(Nc1cccc(C(F)(F)F)c1)c1cccnc1N1CCN(c2ccccc2)CC1 | 11.9
12 | CCCCC(=O)N/N=C/c1ccc(Sc2cccc3cccnc23)o1 | -2.78
13 | CN1C(=O)NC(c2ccc(O)cc2)C(C(=O)c2cccs2)C1(O)C(F)(F)F (stereo not drawn) | -10.9
14 | CC1=NNC(=O)C1CC(=O)N/N=C/c1ccncc1 (stereo not drawn) | 9.92
15 | N=C1C(c2ccccc2)=C(O)CN1c1cccc(S(=O)(=O)N2CCOCC2)c1 | 7.42
16 | COc1ccc(S(=O)(=O)NCCC(C)C)cc1C | 4.62
17 | COc1ccc(C2CC(c3ccccc3)Nc3nc(NC(=O)c4ccco4)nn32)cc1 (stereo not drawn) | 2.75
18 | CCCc1cc(C(=O)Nc2cnn(Cc3ccc(F)cc3)c2)no1 | 10.5
19 | CCCCNC(=S)NNC(=O)C1=NN(c2cc(C)ccc2C)C(=O)CC1 | 12.3
20 | CC1CN(S(=O)(=O)c2ccc(C(=O)N(CCCN(C)C)c3nc4cc5c(cc4s3)OCCO5)cc2)CC(C)O1.Cl (stereo not drawn) | -3.66
21 | COC(=O)C1=NN(C(=O)c2ccc(Cl)cc2)C(O)(c2ccccc2)C1 (stereo not drawn) | 9.81
22 | Cc1nc2scc(-c3cccs3)c2c(=O)n1N | -2.08

Row | Structure (SMILES) | hERG current change (%, negative = inhibition) at 1uM [%]
23 | COc1ccc(N2CCN(C(=O)c3ccccc3NC(=O)C3=C(C)OCCS3)CC2)cc1 | 7.8
24 | COc1ccc(C2/C(=C(/O)c3ccc(C)cc3)C(=O)C(=O)N2C)cc1 (stereo not drawn) | -3.32
25 | COc1cc(CCC(=O)N2CC(C)OC(C)C2)cc(OC)c1OC (stereo not drawn) | 12.2
26 | Cc1ccc2nc(SCC(=O)c3ccccc3)nc(=O)n2c1 | 11.3
27 | CCOC(=O)c1sc2nc(SCC(=O)NCc3ccco3)n(Cc3ccccc3)c(=O)c2c1C | 16.7
28 | CCn1c(N2CCN(CC(=O)c3c(C)n(C)c4ccc(OC)cc34)CC2)nc2c1c(=O)[nH]c(=O)n2C | 8.49
29 | O=C(CSc1ccccc1)N(c1ccc(Br)cc1)c1nccs1 | 8.72
30 | C=CCOc1cccc(C2C(C(=O)c3ccc(C)o3)=C(O)C(=O)N2Cc2ccncc2)c1 (stereo not drawn) | 11.7
31 | CN1C(=O)C(=Cc2ccc(N3CCCCCC3)cc2)C(=O)N(C)C1=O | 12.4
32 | CC(C)OC(=O)c1nnc(-c2ccccc2)nc1OC(C)C | 2.17
33 | NC(=O)c1ccccc1NC(=O)CSc1cn[nH]n1 | 10.4
34 | COc1ccc(S(=O)(=O)Cc2ccc(C(=O)N3CCN(c4ccccn4)CC3)o2)cc1 | -15.8
35 | COC(=O)c1onc(-c2ccccc2)c1C(=O)OC | 11.8
36 | COC(=O)c1ccc(CSc2ccc3nnc(-c4ccc(OC)c(OC)c4)n3n2)o1 | -0.756
37 | COc1ccccc1NC(=O)CCc1nc2ccccc2s1 | 6.84
38 | O=C(O)Cn1ccc2cc(S(=O)(=O)N3CCCCCC3)ccc21 | 17
39 | COc1ccc(S(=O)(=O)CCC(=O)Nc2c(C)cccc2C)cc1 | 16.3
40 | N#Cc1nc(-c2ccco2)oc1NCc1ccc(F)cc1 | 7.5
41 | CN1CCCN(Cc2ccccc2Br)CC1 | 14.7
42 | COc1ccc(NC(=O)c2cc3ccccc3o2)cc1OC | 12
43 | CCN(CC)CCCC(C)NC(=O)c1c(NC(=O)c2ccccc2)sc2c1CCCC2.O=C(O)C(=O)O (stereo not drawn) | -31.6
44 | COCCNC(=O)C(c1cccs1)N(C(=O)Cn1nnc2ccccc21)c1ccc2c(c1)OCO2 (stereo not drawn) | -4.12

Row | Structure (SMILES) | hERG current change (%, negative = inhibition) at 1uM [%]
45 | O=C(Cc1c(Cl)cccc1Cl)NCCc1ccc(Cl)cc1 | 10.3
46 | C/C(=N\Nc1ccc2nncn2n1)c1cccs1 | 9.89
47 | COc1ccc(/C=C/C(=O)NC(=S)NNC(=O)c2cc(OC)c(OC)c(OC)c2)cc1 | 15
48 | COc1ccc(NC(=O)c2oc3ccccc3c2NC(=O)c2ccc3c(c2)OCO3)cc1 | 20.4
49 | Cc1cc(C(N)=O)c2ccccc2n1 | 21.2
50 | COc1ccc([N+](=O)[O-])cc1NC(=O)CS(=O)(=O)c1ccc(C)cc1 | 7.52
51 | Cc1ccc(S(=O)(=O)N(C)CC(=O)OCC(=O)NC(=O)NC(C)C)cc1 | -0.686
52 | Cc1ccc(C(=O)Nc2nnc(S(=O)(=O)N3CCOCC3)s2)cc1 | 15.6
53 | C/C(=N\NC(=O)c1ccc(Br)cc1)C1C(=O)c2ccccc2C1=O | 18
54 | CC(=O)c1c(N2CCOCC2)nc(=S)n(-c2ccc([N+](=O)[O-])cc2)c1C | -7.48
55 | CCCCOc1ccc(N2CC(C(=O)NCCc3ccc(OC)c(OC)c3)CC2=O)cc1 (stereo not drawn) | 11.1
56 | COc1ccc(C(=O)C2CCN(S(=O)(=O)c3ccc4c(c3)OCCO4)CC2)cc1 | 6.44
57 | CCn1c(SCC(=O)N2CCCC(C)C2)nnc1-c1ccc(S(=O)(=O)N2CCN(C)CC2)cc1 (stereo not drawn) | 1.55
58 | N=C1/C(=C/c2cccn2CCOc2ccccc2)C(=O)N=C2SC=C(c3ccccc3)N12 | 6.81
59 | CN(CC(=O)NCc1ccccc1)Cc1cccc(F)c1.O=C(O)C(=O)O | 6.93
60 | COc1ccc2c(c1)C(=O)N1[C@H]3c4cc(Br)ccc4OC[C@@H]3[C@H](c3ccccc3)[C@]1(C)C(=O)N2 | 16.4
61 | CC(C)=CC(=O)N1CCCc2ccccc21 | 9.57
62 | O=C(O)CCCC(=O)OCCCCc1cccs1 | 1.33
63 | Cc1cc(=O)[nH]c(SCC(=O)Nc2nnc(SCc3ccccc3)s2)n1 | 21.6
64 | O=C(O)/C=C\C(=O)Nc1ccccc1C(=O)N1CCN(c2ccc(Cl)cc2)CC1 | 1.1
65 | COc1ccc(-c2ncccc2OC(=O)C23CC4CC(CC(C4)C2)C3)cc1OC.Cl | 5.56
66 | O=C(CCN1C(=O)C2CCCCC2C1=O)Nc1ccc(F)c(F)c1F (stereo not drawn) | 2.77

Row | Structure (SMILES) | hERG current change (%, negative = inhibition) at 1uM [%]
67 | COc1ccc(C)cc1NC(=O)c1ccc(S(=O)(=O)N2CCOCC2)cc1 | 9.7
68 | Cc1cccc(N2C(=NC(=O)c3ccccc3)SC3CS(=O)(=O)CC32)c1 (stereo not drawn) | 15.9
69 | CN1CCN(c2ccc(NC(=O)c3ccccc3Br)cc2)CC1 | 9.75
70 | O=C(c1ccc2[nH]c(=O)c(=O)[nH]c2c1)N1CCN(Cc2ccccc2)CC1 | 15.4
71 | Cc1ccccc1NC1=C(Cl)C(=O)OC1OC(=O)c1ccccc1C (stereo not drawn) | 9.9
72 | CC(CNC(=O)CCn1ccc2cc(S(=O)(=O)N3CCCC3)ccc21)c1ccccc1 (stereo not drawn) | 6.46
73 | CC(=O)c1c(C)[nH]c(-c2ccccc2)nc1=S | 13.3
74 | CC(C)(C)C(=O)COC(=O)c1ccc(N)c([N+](=O)[O-])c1 | 8.06
75 | CCCCOCCCNC(=O)c1ccc2c(c1)OCO2 | -3.39
76 | CCCCn1c(N)c(N(CCOC)C(=O)COC(=O)C(C)Oc2ccc(Cl)cc2)c(=O)[nH]c1=O (stereo not drawn) | 15
77 | CNC(=S)Nn1cnc2ccccc21 | -1.41
78 | CCOc1ccc(S(=O)(=O)Nc2ccc3c(c2)n(C)c(=O)n3C)cc1 | 14.4
79 | COC(=O)c1sc(N)c(C(=O)OC)c1CSc1nc2sc3c(c2c(=O)n1C)CCC3 | -3.33
80 | COc1ccc2c(c1)c(C(C)=O)c(C)n2-c1ccccc1 | 4.05
81 | OCC[C@H]1C[C@H](O)[C@@H](O)[C@]2(OCc3ccccc32)O1 | 17
82 | Cc1cc(C)cc(NC(=O)N2CCN(Cc3ccc4c(c3)OCO4)CC2)c1 | -25.7
83 | COC(=O)c1sccc1NC(=S)Nc1cccc(F)c1 | 14.3
84 | O=S(=O)(NCc1nc(-c2ccccc2)no1)c1ccc(F)cc1 | 6.88
85 | O=C(O)c1ccccc1O | 13.2
86 | CCOC(=O)C1=C(COC(=O)C2(C)CC2(Cl)Cl)NC(=O)NC1c1ccccc1 (stereo not drawn) | 12.3
87 | C=CCn1c(SCC(=O)Nc2cc(C)on2)nc2sc(C)c(C)c2c1=O | 1.37
